Screen size: about 220,000 compounds; about 2,300 (1%) were called active. The inconclusive results got no clear call from the source; some entries with a clear call stand among them for comparison. The call rests on the fitted dose curve; in most records, active means well fitted inhibition curve with a large enough effect; inconclusive means small, poorly fitted or top-dose-only effect, or effect the other way; inactive means no such curve, though single readings can be large or run the other way. No potency is given beside an inconclusive call; the fits are too rough.
These compounds were tested against Neuropeptide S receptor (Homo sapiens) (UniProt Q6W5P4) (assay: qHTS Assay for Antagonists of the Neuropeptide S Receptor: cAMP Signal Transduction). Details: CHO-NPSR cells, cAMP TR-FRET, antagonist mode; activity change, negative = inhibition: at 38.3 µM (top of the series) unless noted.
Chain of UniProt Q6W5P4 (Q6W5P4 whole entry, looked up): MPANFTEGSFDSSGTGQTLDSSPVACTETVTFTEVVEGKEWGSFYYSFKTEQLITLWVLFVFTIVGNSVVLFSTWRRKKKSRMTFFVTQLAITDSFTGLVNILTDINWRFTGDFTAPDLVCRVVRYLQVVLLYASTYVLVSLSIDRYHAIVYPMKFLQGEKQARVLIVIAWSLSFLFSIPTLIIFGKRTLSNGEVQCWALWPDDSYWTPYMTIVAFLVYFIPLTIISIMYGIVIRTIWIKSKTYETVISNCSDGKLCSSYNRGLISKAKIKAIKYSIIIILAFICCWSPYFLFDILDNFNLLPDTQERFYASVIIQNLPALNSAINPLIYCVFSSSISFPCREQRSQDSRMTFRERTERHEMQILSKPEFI
Further: nearly all actives have a fitted effect of over 50% in size.
On the % scale 0 is the no-effect control and ±100 the full control effect; potency means the concentration at half of the fitted maximal effect; tags describe the fitted curve by direction and shape.

SMILES	Potency	activity change, negative = inhibition
Cc1c(Cl)cccc1-n1c(SCC(=O)NCc2ccccc2Cl)nnc1-c1ccncc1	inconclusive [inhibitor, partial curve]	–
O=C1C=C(c2cccs2)CC(c2cccs2)C1n1cnc([N+](=O)[O-])c1 (stereo unspecified)	inconclusive [inhibitor, single point]	–
Cc1ccc(CNC(=O)c2ccc3c(=O)n4c(-c5ccc(C)cc5)csc4nc3c2)cc1	inconclusive [inhibitor, single point]	–
O=C1NC(c2ccccn2)Nc2sc3c(c21)CCC3 (stereo unspecified)	inconclusive [inhibitor, single point]	–
Cc1c(-c2ccc(O)cc2)nc2nc(-c3ccccc3)c(-c3ccccc3)nn12	inconclusive [inhibitor, single point]	–
Cc1c(N2CCCC2)cc2c(c1NC(=O)c1ccccc1Cl)C(C)(C)CC2(C)C	inconclusive [activator, partial curve]	–
O=C(COc1cccc(Br)c1)NN=C1c2ccccc2-c2ccccc21	–	inactive: 0.741%
O=C(c1ccccc1)c1cc(Cl)ccc1N1C(=O)C=CC1=O	inconclusive [inhibitor, single point]	–
CC(C)NC(=O)CC1Nc2c3ccccc3nc(=S)n2C1=O (stereo unspecified)	–	inactive: -5.14% [at 46.1 µM]
CCN(CC)c1ccc(/C=C/c2nc3ccccc3s2)cc1	inconclusive [inhibitor, single point]	–
COc1cccc(OC)c1C(=O)O/N=C(\N)c1ccncc1	inconclusive [activator, single point]	–
COc1ccc(C)cc1NC(=O)c1cnc2scc(C)n2c1=O	inconclusive [inhibitor, single point]	–
COc1ccc(NC(=O)Cc2c(C)n(C(=O)c3ccc(Cl)cc3)c3ccc(OC)cc23)cc1	inconclusive [inhibitor, partial curve]	–
CC(C)CNC(=O)CSc1nnc(-c2cccc(S(=O)(=O)N3CCCCC3)c2)o1	–	inactive: -8.77% [at 46.1 µM]
Fc1ccc(C(c2nnnn2Cc2ccccc2)N2CCSCC2)cc1 (stereo unspecified)	inconclusive [inhibitor, single point]	–
COn1c(SCc2ccc(Cl)cc2)nc2ccccc2c1=O	inconclusive [inhibitor, partial curve, poor fit]	–
Cc1ccc(CC(=O)N2CCN(c3cccc(C(F)(F)F)c3)CC2)cc1	inconclusive [inhibitor, single point]	–
CCOCCCn1c(SCC(=O)Nc2cc(C(C)(C)C)nn2-c2ccccc2)nc2ccccc2c1=O	inconclusive [inhibitor, single point]	–
COc1ccc(C(=O)c2sc(Nc3cccc(OC)c3)c(C(=O)Nc3cccc(C)c3C)c2N)cc1	–	inactive: -13.5% [at 46.1 µM]
COc1cccc(CNCC(O)(c2ccc(Cl)cc2)c2ccc(Cl)cc2)c1	inconclusive [inhibitor, partial curve]	–
Cc1ccc(S(=O)(=O)N2CCOCC2)cc1NC(=O)CN1CCN(c2ccc(O)cc2)CC1	–	inactive: -1.88%

SMILES	Potency	activity change, negative = inhibition
NC(=O)c1ccc(NC(=O)COC(=O)c2ccc3c(c2)OCCO3)cc1	–	inactive: 1.11%
Cc1ccc(C(=O)Nc2nc(C)c(C(=O)Nc3ccc4c(c3)CCC4)s2)cc1	–	inactive: -17.8%
Nc1c2c(nc3sc4c(c13)CCCC4)-c1ccccc1CC2	inconclusive [inhibitor, single point]	–
CCOC(=O)N1CCC(NC(=O)Cn2nc(Cc3ccncc3)c3ccccc3c2=O)CC1	inconclusive [inhibitor, single point]	–
Cc1nn(CC#N)c(=O)n1-c1ccccc1	inconclusive [inhibitor, single point]	–
CCc1cc2cc3c(cc2nc1SCC(=O)Nc1cc(C)on1)OCO3	inconclusive [activator, partial curve]	–
C#CCOCCOCCOCCNc1nc(N2CCN(C(=O)[C@H](Cc3ccc(O)cc3)n3cc([C@@H](N)CC(C)C)nn3)CC2)nc(N2CCN(C(=O)[C@H](Cc3ccc(O)cc3)n3cc([C@@H](N)CC(C)C)nn3)CC2)n1	–	inactive: -9.28%
COc1ccccc1/C=C/C(=O)OCC(=O)Nc1cc(C(F)(F)F)ccc1N1CCOCC1	inconclusive [activator, partial curve]	–
CN1CCc2ccccc2C1Cc1ccccc1NC(=O)c1sc2ccccc2c1Cl (stereo unspecified)	inconclusive [activator, single point]	–
CCn1ncc2c(OCc3ccc(C#N)cc3)cc(C)nc21	inconclusive [inhibitor, single point]	–
N#CCSc1nnc(COc2ccc3ccccc3c2)o1	inconclusive [inhibitor, single point]	–
Cc1sc2cc3c(c(C(=O)c4ccccc4)[n+]2c1C)-c1cccc2cccc-3c12	inconclusive [inhibitor, single point]	–
Cc1cc(NC(=O)c2c(F)cccc2Cl)n(-c2nc3ccccc3[nH]2)n1	inconclusive [inhibitor, single point]	–
Cn1nc([N+](=O)[O-])nc1Sc1nnc(-c2ccccc2)o1	inconclusive [activator, single point]	–
Cc1cc2c3c(c1)C(C)(c1ccccc1)CC(C)(C)N3C(=O)C21C(C#N)=C(N)OC2=C1C(=O)CC(C)(C)C2 (stereo unspecified)	active: 10 µM	–
CCOC(=O)C1C(=O)NC(N2CCN(c3ccccc3)CC2)=NC1c1ccccc1 (stereo unspecified)	inconclusive [inhibitor, single point]	–
COc1ccc(/C=C/C(=O)c2ccc(C)c([N+](=O)[O-])c2)cc1O	–	inactive: 12.2%
CCOc1ccc(Nc2nc(NCC3CCCO3)c3ccccc3n2)cc1 (stereo unspecified)	inconclusive [inhibitor, single point]	–
CCOc1cc(N2CCOCC2)c(OCC)cc1NC(=O)c1cc(-c2ccco2)nc2ccccc12	inconclusive [inhibitor, partial curve]	–
Cc1cc(NC(=O)/C=C/C(=O)N(CC(=O)NC2CCCC2)c2cccc3ccccc23)no1	–	inactive: -21.7%

Source: PubChem BioAssay AID1461 (National Center for Advancing Translational Sciences (NCATS), 2008)
